T1: activin A (Homo sapiens, UniProt P08476)
T1 sequence (P08476 311-426): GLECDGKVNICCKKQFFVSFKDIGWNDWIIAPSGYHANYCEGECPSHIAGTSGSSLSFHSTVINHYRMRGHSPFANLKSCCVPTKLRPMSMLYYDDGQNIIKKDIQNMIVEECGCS

T2: BMP-9 (Homo sapiens, UniProt Q9UK05)
T2 sequence (Q9UK05 320-429): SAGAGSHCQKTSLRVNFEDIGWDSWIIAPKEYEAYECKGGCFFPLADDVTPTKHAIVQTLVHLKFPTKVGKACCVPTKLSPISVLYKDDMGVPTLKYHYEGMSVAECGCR


Key:
activin A = molecular target: T1, activin A; experiment: Small-scale activin A ELISA with CHO supernatants; conditions: 1 μg/mL protein, 30 ng/mL activin A, loss of signal = binding
Description: (§1) Small-scale testing of ActRIIB-ECD fusion proteins. Additional investigation of a series of exemplary agents was performed using proteins expressed in CHO cells. Briefly, DNA encoding the ActRIIB-ECD-Fc fusion constructs was transfected in cells seeded in 12-well plates in a final volume of 1 ml. After 7 days, the supernatant was harvested, clarified, and the amount of expressed protein in each well was quantified using standard methods. The potency of each agent for inhibition of activin A, BMP-9 and BMP-10 was determined in three separate assays.
The next day, the plate was washed three times with buffer (Biolegend #421601). […] Expressed proteins in the supernatants described above were diluted to 2 μg/mL in assay diluent (0.5% BSA, 0.05% tween-20 in PBS), mixed 1:1 with recombinant human activin A (R&D #338-AC, 60 ng/mL, diluted in assay diluent). Complexes were immediately added to the 96-well plate in technical duplicates and incubated for 1 h at RT (concentration of expressed protein and activin A on the plate were 1 μg/mL and 30 ng/mL, respectively). […] In this assay, a loss of signal indicates binding of the exemplary agent to activin A, which prevents activin A binding to the anti-activin A antibody on the plate. Results are expressed as a % of the signal obtained with wild-type ActRIIB-Fc (P75).

BMP-9 = molecular target: T2, BMP-9; experiment: Small-scale BMP-9 ELISA with CHO supernatants; format: binding; conditions: BMP-9 10 ng/mL
Description: as §1
The next day, the plate was washed three times. […] Expressed proteins in the supernatants were diluted 1 in 2 in assay diluent (0.5% BSA, 0.05% tween-20 in PBS) and 100 μl was added to the 96-well plate in technical duplicates. After a 1.5-hour incubation at RT, the plate was washed three times. […] In this assay, a loss of signal indicates less binding of the exemplary agent to BMP-9. Results are expressed as a % of the signal obtained with wild-type ActRIIB-Fc (P75).

| Molecule | activin A binding, ELISA signal relative to P75 (activin A) | BMP-9 binding, ELISA signal relative to P75 (BMP-9) |
| --- | --- | --- |
| P1410: hActRIIB L14Q, L33Y, 19 aa linker, IgG1-DL Fc; SEQ ID 249 (protein) ETRECIYYNANWEQERTNQSGLERCEGEQDKRYHCYASWRNSSGTIELVKKGCWLDDFNCYDRQECVATEENPQVYFCCCEGNFCNERFTHLPEAGGPEVTYEPPPTGGGGSGGGGSGGGGSGG[human IgG1 Fc and a few adjoining residues not spelt out] | potent activin A binding |  |
| P1412: hActRIIB L14N, L33Y, 19 aa linker, IgG1-DL Fc; SEQ ID 251 (protein) ETRECIYYNANWENERTNQSGLERCEGEQDKRYHCYASWRNSSGTIELVKKGCWLDDFNCYDRQECVATEENPQVYFCCCEGNFCNERFTHLPEAGGPEVTYEPPPTGGGGSGGGGSGGGGSGG[human IgG1 Fc and a few adjoining residues not spelt out] | potent activin A binding | intermediate binding between P444 and P75 |
| P777: hActRIIB L33Y, 3 aa linker, IgG1-DL Fc; SEQ ID 180 (protein) ETRECIYYNANWELERTNQSGLERCEGEQDKRYHCYASWRNSSGTIELVKKGCWLDDFNCYDRQECVATEENPQVYFCCCEGNFCNERFTHLPEAGGPEVTYEPPPTG[human IgG1 Fc and a few adjoining residues not spelt out] | lower binding to activin A relative to P75 |  |
| P1174: hActRIIB L33Y T69Q, 3 aa linker, IgG1-DL Fc; SEQ ID 186 (protein) ETRECIYYNANWELERTNQSGLERCEGEQDKRYHCYASWRNSSGTIELVKKGCWLDDFNCYDRQECVAQEENPQVYFCCCEGNFCNERFTHLPEAGGPEVTYEPPPTG[human IgG1 Fc and a few adjoining residues not spelt out] | lower binding to activin A relative to P75 |  |
| P1177: hActRIIB L33Y T69E, 3 aa linker, IgG1-DL Fc; SEQ ID 189 (protein) ETRECIYYNANWELERTNQSGLERCEGEQDKRYHCYASWRNSSGTIELVKKGCWLDDFNCYDRQECVAEEENPQVYFCCCEGNFCNERFTHLPEAGGPEVTYEPPPTG[human IgG1 Fc and a few adjoining residues not spelt out] | lower binding to activin A relative to P75 |  |
| P1230: hActRIIB L33E, 14 aa linker, IgG1-DL Fc; SEQ ID 212 (protein) ETRECIYYNANWELERTNQSGLERCEGEQDKREHCYASWRNSSGTIELVKKGCWLDDFNCYDRQECVATEENPQVYFCCCEGNFCNERFTHLPEAGGPEVTYEPPPTGGGGSGGGGSGG[human IgG1 Fc and a few adjoining residues not spelt out] | lower binding to activin A relative to P75 |  |
| P1272: hActRIIB L33Y, L55Y, 14 aa linker, IgG1-DL Fc; SEQ ID 226 (protein) ETRECIYYNANWELERTNQSGLERCEGEQDKRYHCYASWRNSSGTIELVKKGCWYDDFNCYDRQECVATEENPQVYFCCCEGNFCNERFTHLPEAGGPEVTYEPPPTGGGGSGGGGSGG[human IgG1 Fc and a few adjoining residues not spelt out] | lower binding to activin A relative to P75 | intermediate binding between P444 and P75 |
| P1175: hActRIIB L33Y T69Q, 10 aa linker, IgG1-DL Fc; SEQ ID 187 (protein) ETRECIYYNANWELERTNQSGLERCEGEQDKRYHCYASWRNSSGTIELVKKGCWLDDFNCYDRQECVAQEENPQVYFCCCEGNFCNERFTHLPEAGGPEVTYEPPPTGGGGSGGG[human IgG1 Fc and a few adjoining residues not spelt out] | comparable binding to activin A |  |
| P1178: hActRIIB L33Y T69E, 10 aa linker, IgG1-DL Fc; SEQ ID 190 (protein) ETRECIYYNANWELERTNQSGLERCEGEQDKRYHCYASWRNSSGTIELVKKGCWLDDFNCYDRQECVAEEENPQVYFCCCEGNFCNERFTHLPEAGGPEVTYEPPPTGGGGSGGG[human IgG1 Fc and a few adjoining residues not spelt out] | comparable binding to activin A |  |
| P1179: hActRIIB L33Y T69E, 14 aa linker, IgG1-DL Fc; SEQ ID 191 (protein) ETRECIYYNANWELERTNQSGLERCEGEQDKRYHCYASWRNSSGTIELVKKGCWLDDFNCYDRQECVAEEENPQVYFCCCEGNFCNERFTHLPEAGGPEVTYEPPPTGGGGSGGGGSGG[human IgG1 Fc and a few adjoining residues not spelt out] | comparable binding to activin A |  |
| P1237: hActRIIB L33Y G27K, 14 aa linker, IgG1-DL Fc; SEQ ID 217 (protein) ETRECIYYNANWELERTNQSGLERCEKEQDKRYHCYASWRNSSGTIELVKKGCWLDDFNCYDRQECVATEENPQVYFCCCEGNFCNERFTHLPEAGGPEVTYEPPPTGGGGSGGGGSGG[human IgG1 Fc and a few adjoining residues not spelt out] | comparable binding to activin A |  |
| P1270: hActRIIB L33Y, L14H, 14 aa linker, IgG1-DL Fc; SEQ ID 224 (protein) ETRECIYYNANWEHERTNQSGLERCEGEQDKRYHCYASWRNSSGTIELVKKGCWLDDFNCYDRQECVATEENPQVYFCCCEGNFCNERFTHLPEAGGPEVTYEPPPTGGGGSGGGGSGG[human IgG1 Fc and a few adjoining residues not spelt out] | potent activin A binding |  |
| P1271: hActRIIB L33Y, L14S, 14 aa linker, IgG1-DL Fc; SEQ ID 225 (protein) ETRECIYYNANWESERTNQSGLERCEGEQDKRYHCYASWRNSSGTIELVKKGCWLDDFNCYDRQECVATEENPQVYFCCCEGNFCNERFTHLPEAGGPEVTYEPPPTGGGGSGGGGSGG[human IgG1 Fc and a few adjoining residues not spelt out] | potent activin A binding |  |
| P1181: hActRIIB L33Y G27D, 10 aa linker, IgG1-DL Fc; SEQ ID 193 (protein) ETRECIYYNANWELERTNQSGLERCEDEQDKRYHCYASWRNSSGTIELVKKGCWLDDFNCYDRQECVATEENPQVYFCCCEGNFCNERFTHLPEAGGPEVTYEPPPTGGGGSGGG[human IgG1 Fc and a few adjoining residues not spelt out] |  | very low BMP-9 binding |
| P1239: hActRIIB L33Y G27M, 14 aa linker, IgG1-DL Fc; SEQ ID 219 (protein) ETRECIYYNANWELERTNQSGLERCEMEQDKRYHCYASWRNSSGTIELVKKGCWLDDFNCYDRQECVATEENPQVYFCCCEGNFCNERFTHLPEAGGPEVTYEPPPTGGGGSGGGGSGG[human IgG1 Fc and a few adjoining residues not spelt out] |  | very low BMP-9 binding |
| P1232: hActRIIB L33M, 14 aa linker, IgG1-DL Fc; SEQ ID 214 (protein) ETRECIYYNANWELERTNQSGLERCEGEQDKRMHCYASWRNSSGTIELVKKGCWLDDFNCYDRQECVATEENPQVYFCCCEGNFCNERFTHLPEAGGPEVTYEPPPTGGGGSGGGGSGG[human IgG1 Fc and a few adjoining residues not spelt out] |  | intermediate binding between P444 and P75 |

From US20260193317A1, “COMBINATION THERAPY WITH ACTRIIB RECEPTOR VARIANTS AND GLP-1 AGONISTS” (35PHARMA Inc., priority 2023, published 2026)
